# Reference: PubChem BioAssay AID588855 (National Center for Advancing Translational Sciences (NCATS), 2011)
# Out of some 410,000 compounds screened, about 5,000 (1.2%) were called active. The inconclusive results got no clear call from the source; some entries with a clear call stand among them for comparison. The call rests on the fitted dose curve; in most records, active means well fitted inhibition curve with a large enough effect; inconclusive means small, poorly fitted or top-dose-only effect; inactive means no such curve, though single readings can be large or run the other way. A potency beside an inconclusive call is a rough fit, not a confirmed value.
# Experiment: qHTS for Inhibitors of TGF-b; further: nearly all actives have a fitted effect of over 65% in size
# Details: HepG2 CAGA-GFP TGF-b/SMAD3 reporter, GFP fluorescence, 18 h, TGF-beta stimulated, 500 pg/mL final; series mostly up to 46.1 µM
# Summary of the method: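 TGF-beta reporter screen: HEPG2 CAGA-GFP, 1% FBS, 500 pg/mL TGF-beta final, 18 h; per-cell GFP summed per well; curves fitted and categorized by class.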
# Potency means the concentration at half of the fitted maximal effect; tags describe the fitted curve by direction and shape.
row,SMILES,Potency
1,Cn1c(O)c(N=NC(=S)Nc2ccccc2F)c2cc(S(=O)(=O)N3CCOCC3)ccc21,"inconclusive: 10 µM [inhibitor, partial curve]"
2,CCN1CCN(C(c2ccccc2Cl)c2c(O)cc(C)n(CCOC)c2=O)CC1 (stereo unspecified),inactive
3,CCOc1ccccc1NC(=S)Nn1cnnc1,inactive
4,C[C@H](CO)N1C[C@H](C)[C@@H](CN(C)S(=O)(=O)c2ccc(F)cc2)Oc2c(NC(=O)Nc3ccc(C(F)(F)F)cc3)cccc2C1=O,"inconclusive: 11.2 µM [inhibitor, partial curve, poor fit]"
5,CC(C)CC(=O)Nc1nc(-c2ccc(S(=O)(=O)N3CCOCC3)cc2)cs1,inactive
6,C#CCN1C=C(C(=O)OCC)C(C)N(Cc2ccccc2I)S1(=O)=O (stereo unspecified),"inconclusive: 11.2 µM [inhibitor, single point]"
7,Cc1cccc(NS(=O)(=O)c2ccc(C)c(C(=O)NC3CCN(Cc4ccccc4)CC3)c2)c1,active: 10 µM
8,CC1CCN(C(=O)c2ccc(NC3=C(Cl)C(=O)N(Cc4ccccc4)C3=O)cc2)CC1,"inconclusive: 22.4 µM [inhibitor, single point]"
9,COc1cc2c(C(=O)N3CCN(C)CC3)c(CSc3ccccc3)n(C)c2cc1Br,"inconclusive: 35.5 µM [inhibitor, single point]"
10,COc1ccc(C(c2c(NC(=O)c3ccco3)sc(C)c2C)N2CCOCC2)cc1OC (stereo unspecified),"inconclusive: 35.5 µM [inhibitor, single point]"
11,CC1=C(C(=O)N(C(C)C)C(C)C)CC(CC(=O)NCCCCc2ccccc2)C(=O)N1Cc1ccc(F)cc1 (stereo unspecified),active: 7.94 µM
12,C/C(=C\C(=O)c1ccc(Br)cc1)NNC(=O)c1ccccc1,"inconclusive: 11.2 µM [inhibitor, single point]"
13,CCN(CC)S(=O)(=O)c1ccc(C(=O)NNC(=O)C2CCN(S(=O)(=O)c3ccc(Cl)cc3)CC2)cc1,inactive
14,CN(C)c1ccc(/C=C/c2c(Cl)cnc3ccccc23)cc1,inactive
15,CCc1cc([N+](=O)[O-])cc(CC)c1N,inactive
16,Cc1oc(-c2ccc(Cl)cc2)nc1CN1CCCC(C(=O)NCc2ccccc2)C1 (stereo unspecified),"inconclusive: 8.91 µM [inhibitor, partial curve]"
17,CCCOc1ccc(C(=O)N/N=C/c2ccc(-c3ccc(S(=O)(=O)Nc4ncccn4)cc3)o2)cc1,"inconclusive: 20 µM [inhibitor, partial curve, poor fit]"
18,CCCCCCCCCCCCCCCC[n+]1ccc(C)cc1,"inconclusive: 35.5 µM [inhibitor, single point]"
19,COc1ccc(-c2cc(C(=O)N(C)CCc3ccc(OC)c(OC)c3)c3ccccc3n2)cc1,inactive
20,NCCCC[C@H]1NC(=O)[C@H](CCC(=O)O)NC(=O)c2cc([N+](=O)[O-])cc(I)c2OCC[C@@H](C(N)=O)NC1=O,inactive
21,Cc1cc(-n2ccnc(NCCc3ccc(S(N)(=O)=O)cc3)c2=O)ccc1Br,"inconclusive: 0.562 µM [inhibitor, full curve, poor fit]"
22,COC(=O)C1=C(CSc2nc3ccccc3s2)NC(=O)NC1c1ccc(F)cc1 (stereo unspecified),inactive

row,SMILES,Potency
1,Cn1nc(C(C)(C)C)c([N+](=O)[O-])c1C(=O)Nc1cccc2ccccc12,"inconclusive: 12.6 µM [inhibitor, partial curve, poor fit]"
2,COc1ccc(-c2onc(C)c2C)cc1S(=O)(=O)N(C)Cc1ccccc1,"inconclusive: 35.5 µM [inhibitor, single point]"
3,CC(C)C[C@H]1CNC(=S)N1C[C@H]1CCCN1C[C@H](CC(C)C)N1C[C@H](Cc2ccccc2)N(CCc2ccccc2)C1=S,"inconclusive: 2.82 µM [inhibitor, full curve, poor fit]"
4,COc1ccc(NC(=O)c2ccco2)cc1NC(=O)c1cc(OC)c(OC)c(OC)c1,"inconclusive: 0.501 µM [inhibitor, partial curve, poor fit]"
5,COc1ccc(C(=O)c2sc(Nc3ccccc3)nc2N)cc1,active: 11.2 µM
6,CC(=O)c1cccc(NC(=O)CN(c2cc(C)cc(C)c2)S(=O)(=O)c2c(C)noc2C)c1,"inconclusive: 8.91 µM [inhibitor, partial curve, poor fit]"
7,CCN(CC)c1ccc(/C=N/Nc2ccccc2)c(O)c1,"inconclusive: 35.5 µM [inhibitor, single point]"
8,CC(C)CN(C(=O)c1cccc(S(=O)(=O)N2CCN(Cc3ccccc3)CC2)c1)C1CCS(=O)(=O)C1 (stereo unspecified),inactive
9,COc1ccc(OC)c(NS(=O)(=O)c2ccc(N3CCCCS3(=O)=O)cc2)c1,"inconclusive: 14.1 µM [inhibitor, partial curve, poor fit]"
10,COc1ccc(-c2nn3c(-c4ccccc4)nnc3s2)cc1,"inconclusive: 1.58 µM [inhibitor, partial curve]"
11,CCN1C(=NCCc2c[nH]c3ccccc23)N[C@@H](c2ccccc2)[C@H](C(=O)OC)[C@H]1C,inactive
12,Cc1noc(C)c1S(=O)(=O)N1CCC(C(=O)NC2CCN(Cc3ccccc3)CC2)CC1,"inconclusive: 7.94 µM [inhibitor, partial curve]"
13,O=C(CSCc1cccc(Br)c1)NC1CC1,inactive
14,CSCCC(NS(=O)(=O)c1ccc(Cl)cc1)C(=O)OCc1cccc(Cl)c1 (stereo unspecified),"inconclusive: 35.5 µM [inhibitor, single point]"
15,Cc1cc(SCC(=O)NC(=O)NCc2ccco2)nc2c(C)cccc12,"inconclusive: 0.708 µM [inhibitor, full curve, poor fit]"
16,CC(C)(C)c1ccc(NC(=O)c2cc(C3CCCN(S(=O)(=O)c4cccc5cccnc45)C3)on2)cc1 (stereo unspecified),inactive
17,Cc1ccc(CCC(=O)Nc2ncc(Cc3cc(Cl)ccc3Cl)s2)o1,"inconclusive: 3.98 µM [inhibitor, partial curve, poor fit]"
18,N=c1c2c(ncn1CCCO)Oc1ccc3ccccc3c1C2c1ccccc1 (stereo unspecified),"inconclusive: 0.398 µM [inhibitor, full curve, poor fit]"
19,O=C(CSc1nnc(-c2ccccc2)n1-c1ccccc1)c1ccc[nH]1,inactive
20,Cc1ccc(NC(=O)CSc2nnc(-c3cccnc3)n2CCN2CCCCC2)cc1,"inconclusive: 35.5 µM [inhibitor, single point]"
21,COc1cc(/C=C(\NC(C)=O)C(=O)N2CCCCC2)ccc1OC(C)=O,inactive
22,C/C(=N/Nc1nc(-c2ccccc2)cc(-c2ccc(F)cc2)n1)c1cccc(N)c1,"inconclusive: 35.5 µM [inhibitor, single point]"

row,SMILES,Potency
1,N#CC1=C(N)NC(SCc2ccc(F)cc2)=C(C#N)C12CCCCC2,"inconclusive: 35.5 µM [inhibitor, single point]"
2,CCOC(=O)Cn1c(=O)n(C2CCCCC2)c2nc(-c3c(F)cccc3Cl)nc(C(N)=O)c21,"inconclusive: 35.5 µM [inhibitor, single point]"
3,O=C(Nc1cccc(Cl)c1)N(Cc1nc2ccccc2c(=O)[nH]1)C1CCCC1,inactive
4,COc1ccc(N=N/C(=C\O)C(=O)c2cccs2)cc1,"inconclusive: 22.4 µM [inhibitor, single point]"
5,CCCCn1c(N)c(N(CCC(C)C)C(=O)C2CCN(C(=O)c3ccccc3C)CC2)c(=O)[nH]c1=O,"inconclusive: 31.6 µM [inhibitor, single point]"
6,Cc1ccc(-c2cn3ccc(C)cc3n2)cc1,inactive
7,CC(C)CCn1c(/C=C/c2ccccc2)nc2ccccc21,"inconclusive: 31.6 µM [inhibitor, partial curve, poor fit]"
8,CC[C@]12c3[nH]c4cc(-c5ccco5)ccc4c3CCN1C(=O)[C@@H](CC(=O)NCCC1=CCCCC1)C[C@@H]2C(=O)N1CCN(C(=O)c2ccco2)CC1,active: 14.1 µM
9,Cn1cc(/C=C(\C#N)C(=O)Nc2ccccc2O)c2ccccc21,inactive
10,O=C(Nc1ncnc2c1ncn2[C@@H]1O[C@H](/C=C/C(=O)N2CCN(c3ccc(F)cc3)CC2)[C@@H](O)[C@H]1O)c1ccccc1,"inconclusive: 6.31 µM [inhibitor, single point]"
11,CN(C)c1ccc(CNC(=O)CCS(=O)(=O)c2ccc3c(c2)n(C)c(=O)c(=O)n3C)cc1,inactive
12,CC(=O)C1=C(C)NC(=O)NC1c1cccs1 (stereo unspecified),"inconclusive: 28.2 µM [inhibitor, single point]"
13,Cc1ccc2nc(NC(=O)C3CCN(c4ncnc5sc(C)c(C)c45)CC3)sc2c1,inactive
14,NC(=O)Cn1c(=O)n(CCCCCC(=O)NCc2ccccc2)c(=O)c2sccc21,inactive
15,CCOc1ccccc1NC(=O)c1oc2ccccc2c1NC(=O)C1CCCO1 (stereo unspecified),"inconclusive: 14.1 µM [inhibitor, partial curve, poor fit]"
16,CCCN(CC(=O)Nc1ccccc1C)C(=O)c1ccc(-c2ccc([N+](=O)[O-])cc2)o1,inactive
17,CC(C)(C)c1cc(C(C)(C)C)cc(S(=O)(=O)CCc2ccccn2)c1,"inconclusive: 7.94 µM [inhibitor, partial curve, poor fit]"
18,CC1CCC(NC(=O)CSc2nncs2)CC1 (stereo unspecified),inactive
19,Cc1ccc(S(=O)(=O)N2CCN(CCOc3c(Cl)cccc3Cl)CC2)cc1C,"inconclusive: 8.91 µM [inhibitor, partial curve, poor fit]"
20,CCCCCCCCCCn1ccc(=N)cc1,"inconclusive: 1 µM [inhibitor, partial curve, poor fit]"
21,O=C(c1cccc(S(=O)(=O)N2CCCC2)c1)N1CCN(c2ccccc2)CC1,inactive
22,COc1ccc(C(=O)N2CCC(c3nc(-c4ccc(S(=O)(=O)N5CCCC5)cc4)no3)CC2)cc1,inactive
